Data: patent publication US20200085917A1 (UNIVERSITY OF PITTSBURGH OF THE COMMONWEALTH SYSTEM OF …, published 2020)

Tests used:
Assay in all cases: GST pull-down, LC-MS/MS
Acp6_IPI:IPI00624175.1 = molecular target: T1, Acp6_IPI:IPI00624175.1 (mouse, UniProt Q8BP40 26-418)
T1 sequence (looked up): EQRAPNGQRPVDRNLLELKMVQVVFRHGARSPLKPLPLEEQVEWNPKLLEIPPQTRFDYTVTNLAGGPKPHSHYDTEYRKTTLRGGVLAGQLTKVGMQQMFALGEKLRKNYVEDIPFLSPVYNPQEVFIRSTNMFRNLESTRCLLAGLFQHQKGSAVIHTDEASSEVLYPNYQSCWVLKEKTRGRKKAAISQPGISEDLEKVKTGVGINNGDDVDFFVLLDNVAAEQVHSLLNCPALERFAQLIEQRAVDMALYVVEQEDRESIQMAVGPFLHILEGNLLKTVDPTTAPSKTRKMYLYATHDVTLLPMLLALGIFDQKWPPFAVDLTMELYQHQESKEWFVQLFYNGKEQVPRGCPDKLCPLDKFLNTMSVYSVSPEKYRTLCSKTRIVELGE
Procedure: (§1) Extracts were spun at 14,000 r.p.m. at 4° C., and clarified supernatants were incubated with glutathione 4B Sepharose beads (GE Healthcare) at 4° C. overnight. The glutathione beads were then washed extensively with ice-cold TNE buffer, and bound proteins were subjected to SDS-PAGE followed by immunoblotting analysis. For the samples subjected to mass spectrometry, glutathione bead-bound proteins from equal amounts (600 μg) of mitochondria were further washed with high stringency RIPA buffer following TNE buffer wash to decrease nonspecific interaction. Proteins were then eluted from the glutathione beads in SDS sample buffer, separated by SDS-PAGE and stained with Coomassie. Proteins in the gel were digested with trypsin and analyzed by mass spectrometry (LC-MS/MS) at the Taplin Biological Mass Spectrometry Facility (Harvard Medical School, Boston, Mass.).

Mtx1_IPI:IPI00112327.1 = molecular target: T2, Mtx1_IPI:IPI00112327.1 (mouse, UniProt P47802 1-317)
T2 sequence (looked up): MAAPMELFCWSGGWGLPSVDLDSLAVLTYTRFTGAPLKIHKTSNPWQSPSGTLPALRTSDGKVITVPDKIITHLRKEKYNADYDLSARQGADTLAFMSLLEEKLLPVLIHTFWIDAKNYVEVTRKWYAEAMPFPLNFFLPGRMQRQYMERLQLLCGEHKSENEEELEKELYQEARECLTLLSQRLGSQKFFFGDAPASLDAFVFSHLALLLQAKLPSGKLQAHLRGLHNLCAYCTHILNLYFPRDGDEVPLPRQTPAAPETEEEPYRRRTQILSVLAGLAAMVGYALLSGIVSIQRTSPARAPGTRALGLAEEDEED
Procedure: as §1

Atp1a3_IPI:IPI00122048.2 = Atp1a3_IPI:IPI00122048.2 (mouse, UniProt Q6PIC6)
Procedure: as §1

Dnaja3_IPI:IPI00120414.1 = molecular target: T3, Dnaja3_IPI:IPI00120414.1 (mouse, UniProt Q99M87 1-480, limits assumed)
T3 sequence (looked up): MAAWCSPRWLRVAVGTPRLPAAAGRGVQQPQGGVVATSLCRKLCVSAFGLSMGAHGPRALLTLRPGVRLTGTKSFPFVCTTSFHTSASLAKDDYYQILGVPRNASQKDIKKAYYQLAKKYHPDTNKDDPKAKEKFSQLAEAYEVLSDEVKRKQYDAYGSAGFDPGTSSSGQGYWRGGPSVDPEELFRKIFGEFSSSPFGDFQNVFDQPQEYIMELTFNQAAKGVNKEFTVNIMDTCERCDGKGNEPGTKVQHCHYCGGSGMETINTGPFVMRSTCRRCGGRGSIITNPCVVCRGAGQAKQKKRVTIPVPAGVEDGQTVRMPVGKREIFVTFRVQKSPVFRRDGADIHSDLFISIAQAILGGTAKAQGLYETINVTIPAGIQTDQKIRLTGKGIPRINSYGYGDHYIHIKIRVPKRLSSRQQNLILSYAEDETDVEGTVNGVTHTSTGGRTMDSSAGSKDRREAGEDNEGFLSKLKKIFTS
Procedure: as §1

[1] = molecular target: T4, Slc25a27_IPI:IPI00108998.1 (mouse, UniProt Q9D6D0 1-322)
T4 sequence (looked up): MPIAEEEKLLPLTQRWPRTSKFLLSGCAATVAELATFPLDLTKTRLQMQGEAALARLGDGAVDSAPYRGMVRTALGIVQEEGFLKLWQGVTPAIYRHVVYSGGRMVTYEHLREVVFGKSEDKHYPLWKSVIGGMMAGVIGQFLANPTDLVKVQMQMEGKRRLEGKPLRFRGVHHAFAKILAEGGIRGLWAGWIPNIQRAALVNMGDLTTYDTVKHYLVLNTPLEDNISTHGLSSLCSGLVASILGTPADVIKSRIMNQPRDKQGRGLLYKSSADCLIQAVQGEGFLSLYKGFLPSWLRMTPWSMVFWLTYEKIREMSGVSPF
Procedure: as §1

Coq5_IPI:IPI00379695.2 = molecular target: T5, Coq5_IPI:IPI00379695.2 (mouse, UniProt Q9CXI0 50-327)
T5 sequence (looked up): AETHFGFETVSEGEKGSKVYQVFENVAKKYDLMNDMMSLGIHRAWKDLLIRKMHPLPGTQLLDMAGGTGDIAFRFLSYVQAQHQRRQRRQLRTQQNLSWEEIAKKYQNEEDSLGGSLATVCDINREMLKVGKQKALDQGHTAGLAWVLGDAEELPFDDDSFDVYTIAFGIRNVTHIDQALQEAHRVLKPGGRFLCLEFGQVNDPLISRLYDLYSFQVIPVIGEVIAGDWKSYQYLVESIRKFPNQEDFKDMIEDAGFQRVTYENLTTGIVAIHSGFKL
Procedure: as §1

[2] = molecular target: Nup210l_IPI:IPI00356451.5 (mouse, UniProt Q9D2F7 33-1881, limits assumed)
Procedure: as §1

Etfa_IPI:IPI00116753.4 = molecular target: T6, Etfa_IPI:IPI00116753.4 (mouse, UniProt Q99LC5 20-333)
T6 sequence (looked up): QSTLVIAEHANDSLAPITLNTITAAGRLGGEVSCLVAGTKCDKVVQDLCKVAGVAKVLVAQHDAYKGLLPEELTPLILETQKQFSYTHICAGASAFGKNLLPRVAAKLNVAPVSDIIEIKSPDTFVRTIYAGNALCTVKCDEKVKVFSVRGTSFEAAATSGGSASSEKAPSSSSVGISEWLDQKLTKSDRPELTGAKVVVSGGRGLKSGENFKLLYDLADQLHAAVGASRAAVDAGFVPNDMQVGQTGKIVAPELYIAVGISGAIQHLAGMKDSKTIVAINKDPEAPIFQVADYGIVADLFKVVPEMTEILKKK
Procedure: as §1

Measured: binding result

UniProt Q9D2F7, sequence (Q9D2F7 33-1881 limits assumed): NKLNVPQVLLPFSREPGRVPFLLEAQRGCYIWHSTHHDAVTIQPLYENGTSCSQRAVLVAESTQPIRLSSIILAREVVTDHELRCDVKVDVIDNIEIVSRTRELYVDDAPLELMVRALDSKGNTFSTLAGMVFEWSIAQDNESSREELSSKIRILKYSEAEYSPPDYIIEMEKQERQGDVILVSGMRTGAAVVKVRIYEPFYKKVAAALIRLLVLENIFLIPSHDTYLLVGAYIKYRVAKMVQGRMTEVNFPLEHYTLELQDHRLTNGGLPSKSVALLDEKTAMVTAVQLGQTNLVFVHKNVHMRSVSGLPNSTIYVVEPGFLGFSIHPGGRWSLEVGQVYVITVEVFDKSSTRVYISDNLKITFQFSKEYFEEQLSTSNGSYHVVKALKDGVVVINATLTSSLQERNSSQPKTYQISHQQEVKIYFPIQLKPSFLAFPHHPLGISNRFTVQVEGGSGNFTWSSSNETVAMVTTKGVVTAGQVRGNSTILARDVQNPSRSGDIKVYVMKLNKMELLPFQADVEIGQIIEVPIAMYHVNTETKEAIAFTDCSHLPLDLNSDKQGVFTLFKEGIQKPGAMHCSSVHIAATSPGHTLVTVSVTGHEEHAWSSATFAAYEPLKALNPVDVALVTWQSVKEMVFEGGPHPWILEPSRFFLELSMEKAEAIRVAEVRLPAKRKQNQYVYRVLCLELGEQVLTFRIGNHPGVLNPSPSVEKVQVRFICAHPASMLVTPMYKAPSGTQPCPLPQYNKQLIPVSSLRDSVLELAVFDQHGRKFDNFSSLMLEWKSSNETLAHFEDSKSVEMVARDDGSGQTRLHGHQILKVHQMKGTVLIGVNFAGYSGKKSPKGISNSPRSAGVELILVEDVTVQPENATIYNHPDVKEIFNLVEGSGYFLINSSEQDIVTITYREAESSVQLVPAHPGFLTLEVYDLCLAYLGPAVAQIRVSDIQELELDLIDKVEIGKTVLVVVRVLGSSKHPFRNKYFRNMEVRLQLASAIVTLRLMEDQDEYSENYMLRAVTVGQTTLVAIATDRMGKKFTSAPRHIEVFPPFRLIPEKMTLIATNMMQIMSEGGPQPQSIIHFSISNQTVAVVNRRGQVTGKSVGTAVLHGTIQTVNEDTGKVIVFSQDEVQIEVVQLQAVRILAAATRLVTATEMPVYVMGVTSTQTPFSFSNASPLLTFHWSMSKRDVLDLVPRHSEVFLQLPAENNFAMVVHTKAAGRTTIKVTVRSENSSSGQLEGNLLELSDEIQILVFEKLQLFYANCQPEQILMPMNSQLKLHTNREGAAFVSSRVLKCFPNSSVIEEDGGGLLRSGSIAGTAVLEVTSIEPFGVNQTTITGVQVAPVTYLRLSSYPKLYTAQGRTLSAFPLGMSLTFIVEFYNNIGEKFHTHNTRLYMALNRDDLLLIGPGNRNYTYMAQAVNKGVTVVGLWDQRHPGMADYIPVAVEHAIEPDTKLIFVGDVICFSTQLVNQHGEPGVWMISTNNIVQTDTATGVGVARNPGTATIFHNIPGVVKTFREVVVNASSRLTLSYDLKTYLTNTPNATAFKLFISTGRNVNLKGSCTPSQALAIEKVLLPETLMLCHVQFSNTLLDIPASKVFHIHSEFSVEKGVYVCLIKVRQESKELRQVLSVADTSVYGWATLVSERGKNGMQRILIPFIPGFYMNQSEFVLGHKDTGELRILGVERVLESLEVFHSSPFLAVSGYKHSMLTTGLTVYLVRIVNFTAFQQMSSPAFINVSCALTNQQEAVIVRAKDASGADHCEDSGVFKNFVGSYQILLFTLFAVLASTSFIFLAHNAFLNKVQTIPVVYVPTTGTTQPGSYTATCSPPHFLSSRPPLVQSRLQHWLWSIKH

B1: GST alone (other)
chain: not shown
notes: Negative control of the pull-downs; also called control GST
no binding: all assays above
